Laboratory results taken from PMC4336329 (PLoS ONE, 2015).
In all, about 310,000 compounds went through this assay and about 14,000 (4.5%) showed an effect of 50% or more. The effect is printed as a negative number. This is one part of the list.

Biological target: human ether-à-go-go-related gene (hERG) potassium channel (human, UniProt Q12809)
Assay: primary screen, population patch clamp on CHO cells stably expressing hERG
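Further: peak tail current of the secondary pulse compared with the same well before compound.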

Chain of human ether-à-go-go-related gene (hERG) potassium channel (Q12809 whole entry, looked up): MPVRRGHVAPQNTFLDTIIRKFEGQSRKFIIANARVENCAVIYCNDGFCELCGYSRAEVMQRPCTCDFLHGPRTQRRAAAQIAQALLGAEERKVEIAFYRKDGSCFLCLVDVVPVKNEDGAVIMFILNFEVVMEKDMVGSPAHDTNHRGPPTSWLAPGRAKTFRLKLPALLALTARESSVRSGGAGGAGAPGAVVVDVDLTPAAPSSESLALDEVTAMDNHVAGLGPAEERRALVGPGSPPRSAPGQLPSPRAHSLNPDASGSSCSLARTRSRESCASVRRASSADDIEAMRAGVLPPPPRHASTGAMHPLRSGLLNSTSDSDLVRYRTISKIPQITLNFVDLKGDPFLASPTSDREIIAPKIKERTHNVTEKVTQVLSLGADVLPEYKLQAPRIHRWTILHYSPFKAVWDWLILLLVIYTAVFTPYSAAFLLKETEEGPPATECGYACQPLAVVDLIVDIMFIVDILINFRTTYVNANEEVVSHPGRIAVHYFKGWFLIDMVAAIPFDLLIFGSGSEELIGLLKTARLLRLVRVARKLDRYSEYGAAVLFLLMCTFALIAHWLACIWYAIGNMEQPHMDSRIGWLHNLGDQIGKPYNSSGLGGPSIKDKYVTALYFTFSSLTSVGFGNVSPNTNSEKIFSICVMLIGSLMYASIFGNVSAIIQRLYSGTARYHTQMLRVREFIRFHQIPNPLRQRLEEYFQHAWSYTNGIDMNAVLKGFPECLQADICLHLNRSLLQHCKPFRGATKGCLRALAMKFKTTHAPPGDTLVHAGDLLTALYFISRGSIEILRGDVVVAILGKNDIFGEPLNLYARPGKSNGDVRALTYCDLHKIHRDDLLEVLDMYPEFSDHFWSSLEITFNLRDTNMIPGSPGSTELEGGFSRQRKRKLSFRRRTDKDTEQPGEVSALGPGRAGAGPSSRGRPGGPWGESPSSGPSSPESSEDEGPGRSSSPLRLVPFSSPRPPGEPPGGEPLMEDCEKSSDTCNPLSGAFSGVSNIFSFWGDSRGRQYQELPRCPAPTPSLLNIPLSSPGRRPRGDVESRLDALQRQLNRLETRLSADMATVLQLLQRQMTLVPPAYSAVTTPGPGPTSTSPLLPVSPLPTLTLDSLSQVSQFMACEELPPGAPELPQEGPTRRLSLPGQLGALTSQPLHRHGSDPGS

Going from O=C(COC(=O)c1ccc(S(=O)(=O)NCc2ccco2)cc1)NCC1CCCCC1 to CN(C(=O)c1ccc(Oc2ccc([N+](=O)[O-])cc2)cc1)C1CCCCC1, the “hERG current change (%, negative = inhibition) at 10uM” value falls from -2.43% to -24.5%.

First: Cc1cc(=O)oc(C)c1C(=O)NCc1ccc(F)cc1
Second: Fc1ccc(CNCCc2c[nH]c3ccccc23)cc1
The “hERG current change (%, negative = inhibition) at 10uM” value of the first is lower: -15.9% for the first, -5.83% for the second.

Compared with Cc1ccc(Oc2c(C(N)=O)cc([N+](=O)[O-])cc2[N+](=O)[O-])cc1, COc1ccc(NC(=O)CN(C)S(=O)(=O)c2ccc3c(c2)NC(=O)CS3)cc1 is higher in “hERG current change (%, negative = inhibition) at 10uM” value: -15.4% for the first, -6.66% for the second.

Going from COc1ccccc1NC(=O)NNC(=O)CCc1ccccc1 to COC(=O)CSc1nnc(CNC(=O)Cc2ccccc2)n1-c1ccccc1OC, the “hERG current change (%, negative = inhibition) at 10uM” value falls from 1.12% to -4.41%.

Going from O=C(c1cc(=O)[nH]c2ccccc12)N(Cc1nnc(-c2ccccc2Cl)o1)C1CC1 to O=C(CSc1nnc(-c2c[nH]c3ccccc23)o1)N1c2ccccc2CCc2ccccc21, the “hERG current change (%, negative = inhibition) at 10uM” value rises from -19.5% to 17.8%.

Going from CCc1c(C)nn(C(=O)/C(C#N)=C\N(C)C)c1C to CCC(C)NC(=O)c1cc(-c2ccc3c(c2)OCO3)on1 (centres unmarked), the “hERG current change (%, negative = inhibition) at 10uM” value falls from -1.67% to -8.08%.

Compared with COc1ccc(CNC(=O)COC(=O)c2c[nH]c(=O)[nH]c2=O)cc1OC, COc1ccc(OC)c(C2Nc3c(Cl)ccc(C(=O)O)c3C3C=CCC32)c1 (centres unmarked) is lower in “hERG current change (%, negative = inhibition) at 10uM” value: 4.82% for the first, 2.48% for the second.

First: COc1ccc(C(CC(=O)O)N2Cc3ccccc3C2=O)cc1 (centres unmarked)
Second: COc1ccc(NC(C#N)c2ccc(OC)cc2)cc1 (centres unmarked)
The “hERG current change (%, negative = inhibition) at 10uM” value of the first is lower: 14.4% for the first, 26.7% for the second.

Going from COc1ccc(N2CCN(C(=O)CN3C(=O)NC(C)(c4ccc5ccccc5c4)C3=O)CC2)cc1 (centres unmarked) to Cc1nn(CC(=O)N2CCN(c3cccc(C(F)(F)F)c3)CC2)c(=O)c2cccn12, the “hERG current change (%, negative = inhibition) at 10uM” value falls from -17.6% to -19.6%.

First: O=C(/C=C/Sc1ccc(C(F)(F)F)cn1)c1ccccc1
Second: Cc1nc2ccc(Br)cc2c(-c2ccccc2)c1C(=O)O
The “hERG current change (%, negative = inhibition) at 10uM” value of the first is lower: 17.3% for the first, 19.8% for the second.

Going from COc1cc(/C=C2/SC(=NCc3ccccc3)N(Cc3ccccc3)C2=O)ccc1O to O=C(Oc1ccccc1)c1ccc2c(c1)C(=O)N(Cc1ccncc1)C2=O, the “hERG current change (%, negative = inhibition) at 10uM” value falls from 13.1% to -24.8%.

Compared with CC(=O)Nc1cccc(NC(=O)c2cc(Cl)ccc2Cl)c1, CC(=O)Nc1ccc(NC(=O)CSc2nccn2Cc2ccccc2)cc1 is lower in “hERG current change (%, negative = inhibition) at 10uM” value: 4.28% for the first, 3.96% for the second.

Compared with COC(=O)c1[nH]c2ccccc2c1NC(=O)c1c(F)cccc1F, CCOC(=O)c1[nH]ncc1CN1CCCC(C(=O)c2cccc3ccccc23)C1 (centres unmarked) is lower in “hERG current change (%, negative = inhibition) at 10uM” value: 17.1% for the first, -45.8% for the second.

Compared with CCC(=O)c1c[nH]c(C(=O)NCCc2ccccn2)c1, O=C(CCc1ccccn1)N1CCCC(CNS(=O)(=O)c2cccs2)C1 (centres unmarked) is lower in “hERG current change (%, negative = inhibition) at 10uM” value: 3.31% for the first, 0.679% for the second.

Going from O=C(/C=C/c1cccc(Br)c1)Nc1nn[nH]n1 to Cc1cccc(NCC(=O)NNC(=S)Nc2ccccc2)c1, the “hERG current change (%, negative = inhibition) at 10uM” value rises from 10.8% to 17.8%.

Compared with Cc1c(/C=N/NC(=O)CNc2ccccc2)c2ccccn2c1C(=O)c1ccncc1, C/C(=N/NC(=O)c1ccc(Br)s1)c1ccncc1 is higher in “hERG current change (%, negative = inhibition) at 10uM” value: 0.0344% for the first, 14.7% for the second.

First: O=C(OCc1ccc([N+](=O)[O-])cc1)C1CCN(S(=O)(=O)c2ccccc2)CC1
Second: Cc1ccccc1S(=O)(=O)Cc1ccc(C(=O)N2CCN(c3ncccn3)CC2)o1
The “hERG current change (%, negative = inhibition) at 10uM” value of the first is lower: -37.3% for the first, -23.3% for the second.

Going from CNC(=S)Nc1ccccc1-c1ccccc1 to O=C(CC1Sc2ccccc2NC1=O)NCc1ccccc1 (centres unmarked), the “hERG current change (%, negative = inhibition) at 10uM” value rises from -4.35% to 4.59%.

Compared with COc1ccc(C(=O)C2CCCN(C(=O)c3cccnc3OC)C2)c(C)c1 (centres unmarked), Cc1csc(NC(=O)C2CCN(C(=O)c3ccccc3C)CC2)n1 is lower in “hERG current change (%, negative = inhibition) at 10uM” value: 23.6% for the first, 7.62% for the second.

Compared with Cc1c(NS(=O)(=O)c2cccc3nsnc23)c(=O)n(-c2ccccc2)n1C, Cc1ccccc1OCc1n[nH]c(=S)n1-c1ccccc1 is higher in “hERG current change (%, negative = inhibition) at 10uM” value: 1.11% for the first, 10% for the second.

First: COc1ccc(NS(=O)(=O)c2cc(NC(=O)c3ccc(=O)[nH]c3)ccc2N2CCCC2)cc1
Second: CS(=O)(=O)c1ccc(C(=O)Nc2ccc(N3CCCC3)cc2)c(Cl)c1
The “hERG current change (%, negative = inhibition) at 10uM” value of the first is higher: 12.7% for the first, 6.23% for the second.

Going from COCCn1c(N)c(Sc2ccccc2)c(=O)[nH]c1=O to COCC(C)N=C1SCCN1Cc1ccccc1 (centres unmarked), the “hERG current change (%, negative = inhibition) at 10uM” value falls from 26.7% to 23.7%.

Compared with O=C(Nn1cnnc1)C1CCCN1S(=O)(=O)c1ccc(F)cc1 (centres unmarked), Cc1cccc(C)c1Nc1nnc(SCC(=O)Nc2cc(S(=O)(=O)N3CCCCC3)ccc2Cl)s1 is lower in “hERG current change (%, negative = inhibition) at 10uM” value: 6.05% for the first, 1.91% for the second.

Going from Nn1c(SCc2cn3ccsc3n2)nnc1-c1ccncc1 to CC(C)(C)C(=O)N(Cc1ccc(Cl)cc1)c1cnccn1, the “hERG current change (%, negative = inhibition) at 10uM” value falls from 6.48% to 5.17%.

First: COCCCNc1nc2nonc2nc1NCCSC
Second: COc1ccc(/C=N/NC(=O)c2ccc(CN3c4cccc5cccc(c45)S3(=O)=O)cc2)cc1
The “hERG current change (%, negative = inhibition) at 10uM” value of the first is higher: 11.3% for the first, 4.03% for the second.

Going from COc1cccc(C(=O)NCC2(c3ccccc3)CCCC2)c1OC to O=C(N/N=C/c1cccc(OCC(=O)N2CCCC2)c1)C(=O)Nc1ccccc1F, the “hERG current change (%, negative = inhibition) at 10uM” value falls from 3.79% to -19.3%.

Going from Cc1cc(=O)oc2c1ccc1oc(/C(=N/O)c3ccccc3)c(C)c12 to COc1ccc(N2C(=O)N3[C@H](c4ccc(Br)cc4)[C@@H]4C(=O)N(C(C)(C)C)C(=O)[C@@H]4[C@]3(Cc3ccccc3)C2=O)cc1, the “hERG current change (%, negative = inhibition) at 10uM” value falls from 16.5% to 5.86%.

Compared with O=C(NN1CCOCC1)c1ccc(Br)s1, OC1(c2ccc3c(c2)OCO3)CCN(Cc2ccccn2)CC1 is lower in “hERG current change (%, negative = inhibition) at 10uM” value: 36% for the first, -6.96% for the second.
